Assay results taken from article PMC6113314.
Where a chain is given by its changes, count along the chain named. Names may count otherwise. Results are given in words; binding and its absence hold for the method and conditions named. In cells and extracts the contact can be indirect. Some results given as binding are weak or reduced against the parent protein; the word gives no strength. For some of these results: Sequences can lack the tags named with a protein.

The chains behind the UniProt entries cited, without tags or fusion partners.
UniProt P49815: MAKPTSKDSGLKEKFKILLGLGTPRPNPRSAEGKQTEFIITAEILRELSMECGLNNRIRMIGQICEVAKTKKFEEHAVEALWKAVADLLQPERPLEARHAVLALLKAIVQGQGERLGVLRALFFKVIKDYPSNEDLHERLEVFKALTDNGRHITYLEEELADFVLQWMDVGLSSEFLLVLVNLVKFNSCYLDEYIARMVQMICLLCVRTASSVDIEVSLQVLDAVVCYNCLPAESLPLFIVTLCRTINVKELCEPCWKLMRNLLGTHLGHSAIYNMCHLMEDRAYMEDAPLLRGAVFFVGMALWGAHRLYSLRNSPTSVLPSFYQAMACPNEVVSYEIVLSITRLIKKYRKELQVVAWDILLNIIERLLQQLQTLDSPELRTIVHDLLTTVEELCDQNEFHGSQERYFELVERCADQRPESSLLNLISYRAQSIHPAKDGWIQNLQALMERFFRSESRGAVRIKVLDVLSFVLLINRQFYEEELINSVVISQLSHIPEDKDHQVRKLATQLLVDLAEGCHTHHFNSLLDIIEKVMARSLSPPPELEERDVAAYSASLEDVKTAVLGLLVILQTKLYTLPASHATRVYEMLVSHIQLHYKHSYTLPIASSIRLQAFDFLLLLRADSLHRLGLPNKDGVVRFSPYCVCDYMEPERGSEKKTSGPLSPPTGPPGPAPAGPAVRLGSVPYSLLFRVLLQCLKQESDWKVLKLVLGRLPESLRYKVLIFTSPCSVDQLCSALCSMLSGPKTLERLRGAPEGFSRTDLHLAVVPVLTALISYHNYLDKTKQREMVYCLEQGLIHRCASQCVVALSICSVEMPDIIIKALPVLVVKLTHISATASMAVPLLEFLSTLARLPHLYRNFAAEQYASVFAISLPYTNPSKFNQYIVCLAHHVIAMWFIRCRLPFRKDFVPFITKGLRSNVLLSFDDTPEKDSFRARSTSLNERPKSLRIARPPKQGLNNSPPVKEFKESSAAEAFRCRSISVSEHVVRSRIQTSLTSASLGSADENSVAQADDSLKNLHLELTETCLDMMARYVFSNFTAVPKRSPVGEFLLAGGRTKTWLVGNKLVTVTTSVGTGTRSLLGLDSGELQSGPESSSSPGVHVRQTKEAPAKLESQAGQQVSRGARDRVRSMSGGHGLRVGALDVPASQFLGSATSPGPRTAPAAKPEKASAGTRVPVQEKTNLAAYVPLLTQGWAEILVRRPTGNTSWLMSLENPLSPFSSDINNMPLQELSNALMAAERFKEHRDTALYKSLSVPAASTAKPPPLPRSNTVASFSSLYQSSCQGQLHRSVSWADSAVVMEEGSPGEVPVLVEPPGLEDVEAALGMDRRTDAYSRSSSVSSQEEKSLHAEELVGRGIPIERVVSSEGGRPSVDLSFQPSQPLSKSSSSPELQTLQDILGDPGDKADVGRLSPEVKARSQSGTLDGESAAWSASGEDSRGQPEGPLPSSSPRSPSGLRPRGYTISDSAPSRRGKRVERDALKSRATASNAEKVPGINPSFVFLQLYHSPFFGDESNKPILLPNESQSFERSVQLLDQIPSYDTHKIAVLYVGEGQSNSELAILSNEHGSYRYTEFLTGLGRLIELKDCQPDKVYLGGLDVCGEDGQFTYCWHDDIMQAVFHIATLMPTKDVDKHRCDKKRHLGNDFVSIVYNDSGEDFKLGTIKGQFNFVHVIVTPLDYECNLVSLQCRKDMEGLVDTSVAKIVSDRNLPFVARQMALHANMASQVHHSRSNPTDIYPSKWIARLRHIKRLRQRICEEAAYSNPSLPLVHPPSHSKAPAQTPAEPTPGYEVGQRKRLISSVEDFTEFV

Tests used:
[1] = biological target: T1, Arrest-defective protein 1 (ARD1), endogenous (human (endogenous in MCF-7 and MDA-MB-231)) (UniProt P41227); test: co-IP; endogenous proteins; breast cancer cells serum-starved overnight, TNFα (10 ng/ml) 30 min; lysates immunoprecipitated with anti-ARD1, immunoblot anti-IKKβ; IKKα co-IP and immunoblot as control; CHAPS cell extract buffer
T1 sequence: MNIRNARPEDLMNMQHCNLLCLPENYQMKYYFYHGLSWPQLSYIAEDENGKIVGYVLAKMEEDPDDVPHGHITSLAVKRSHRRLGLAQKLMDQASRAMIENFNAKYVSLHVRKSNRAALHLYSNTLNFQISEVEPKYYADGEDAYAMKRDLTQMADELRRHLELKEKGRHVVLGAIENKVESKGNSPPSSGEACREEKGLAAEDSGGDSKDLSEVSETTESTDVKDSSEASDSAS

HA-ARD1 (human) = biological target: T2, HA-ARD1 (human) (UniProt P41227); test: co-IP; HEK293T cotransfected with Flag-IKKβ, Flag-IKKα or K44A kinase-dead mutants and HA-ARD1; immunoprecipitation (Supplementary Fig. 1B)
T2 sequence: T1 sequence

HA-TSC2 = HA-TSC2 (UniProt P49815); test: co-IP; HEK293T cotransfected with FLAG-IKKβ, Myc-ARD1 and HA-TSC2; immunoprecipitation with anti-HA; with or without IKKβ; MG132 in Supplementary Fig. 2B
[2] = biological target: Tuberous sclerosis complex 2 (TSC2), endogenous (human (endogenous in MCF-7)) (UniProt P49815); test: co-IP; endogenous proteins; MCF-7 serum-starved overnight, with or without TNFα 1 h; lysates immunoprecipitated with antibodies to ARD1 and TSC2; MG132 in Supplementary Fig. 2C
[3] = biological target: T3, Arrest-defective protein 1 (ARD1), endogenous (human (endogenous in MCF-7 and MDA-MB-231)), P41227; test: co-IP; endogenous proteins; breast cancer cells serum-starved overnight, TNFα (10 ng/ml) 30 min; lysates immunoprecipitated with anti-ARD1, immunoblot anti-IKKβ; IKKα co-IP and immunoblot as control; CHAPS cell extract buffer; details: remark: other sources report otherwise
T3 chain: T1 sequence

HA-ARD1 (human), P41227 = biological target: T4, HA-ARD1 (human), P41227; test: co-IP; HEK293T cotransfected with Flag-IKKβ, Flag-IKKα or K44A kinase-dead mutants and HA-ARD1; immunoprecipitation (Supplementary Fig. 1B); details: remark: other sources report otherwise
T4 chain: T1 sequence

B1: IκB kinase β (IKKβ), endogenous (enzyme, UniProt O14920 1-756)
chain: MSWSPSLTTQTCGAWEMKERLGTGGFGNVIRWHNQETGEQIAIKQCRQELSPRNRERWCLEIQIMRRLTHPNVVAARDVPEGMQNLAPNDLPLLAMEYCQGGDLRKYLNQFENCCGLREGAILTLLSDIASALRYLHENRIIHRDLKPENIVLQQGEQRLIHKIIDLGYAKELDQGSLCTSFVGTLQYLAPELLEQQKYTVTVDYWSFGTLAFECITGFRPFLPNWQPVQWHSKVRQKSEVDIVVSEDLNGTVKFSSSLPYPNNLNSVLAERLEKWLQLMLMWHPRQRGTDPTYGPNGCFKALDDILNLKLVHILNMVTGTIHTYPVTEDESLQSLKARIQQDTGIPEEDQELLQEAGLALIPDKPATQCISDGKLNEGHTLDMDLVFLFDNSKITYETQISPRPQPESVSCILQEPKRNLAFFQLRKVWGQVWHSIQTLKEDCNRLQQGQRAAMMNLLRNNSCLSKMKNSMASMSQQLKAKLDFFKTSIQIDLEKYSEQTEFGITSDKLLLAWREMEQAVELCGRENEVKLLVERMMALQTDIVDLQRSPMGRKQGGTLDDLEEQARELYRRLREKPRDQRTEGDSQEMVRLLLQAIQSFEKKVRVIYTQLSKTVVCKQKALELLPKVEEVVSLMNEDEKTVVRLQEKRQKELWNLLKIACSKVRGPVSGSPDSMNASRLSQPGQLMSQPSTASNSLPEPAKKSEELVAEAHNLCTLLENAIQDTVREQDQSFTALDWSWLQTEEEEHSCLEQAS
For B1, the binding [1] was “binds”.

B2: Flag-IKKβ (enzyme, UniProt O14920 1-756)
chain: B1 chain
B2 was tested, and the binding (HA-ARD1 (human)) was “binds”.

B3: Flag-nIKKβ (kinase-dead mutant of IKKβ, K44A) (enzyme, UniProt O14920 1-756)
chain: B1 chain with K44A
For B3, the binding (HA-ARD1 (human)) was “binds”.

B4: Myc-ARD1 (protein, UniProt P41227 1-235)
chain: T1 sequence
B4 was tested, and the binding (HA-TSC2) was “binds”.

B5: Arrest-defective protein 1 (ARD1), endogenous (protein, UniProt P41227 1-235)
chain: T1 sequence
In the case of B5, the binding [2] is reported as “binds”.

B6: IκB kinase α (IKKα), endogenous, O15111 1-745 (enzyme)
chain: MERPPGLRPGAGGPWEMRERLGTGGFGNVCLYQHRELDLKIAIKSCRLELSTKNRERWCHEIQIMKKLNHANVVKACDVPEELNILIHDVPLLAMEYCSGGDLRKLLNKPENCCGLKESQILSLLSDIGSGIRYLHENKIIHRDLKPENIVLQDVGGKIIHKIIDLGYAKDVDQGSLCTSFVGTLQYLAPELFENKPYTATVDYWSFGTMVFECIAGYRPFLHHLQPFTWHEKIKKKDPKCIFACEEMSGEVRFSSHLPQPNSLCSLVVEPMENWLQLMLNWDPQQRGGPVDLTLKQPRCFVLMDHILNLKIVHILNMTSAKIISFLLPPDESLHSLQSRIERETGINTGSQELLSETGISLDPRKPASQCVLDGVRGCDSYMVYLFDKSKTVYEGPFASRSLSDCVNYIVQDSKIQLPIIQLRKVWAEAVHYVSGLKEDYSRLFQGQRAAMLSLLRYNANLTKMKNTLISASQQLKAKLEFFHKSIQLDLERYSEQMTYGISSEKMLKAWKEMEEKAIHYAEVGVIGYLEDQIMSLHAEIMELQKSPYGRRQGDLMESLEQRAIDLYKQLKHRPSDHSYSDSTEMVKIIVHTVQSQDRVLKELFGHLSKLLGCKQKIIDLLPKVEVALSNIKEADNTVMFMQGKRQKEIWHLLKIACTQSSARSLVGSSLEGAVTPQTSAWLPPTSAEHDHSLSCVVTPQDGETSAQMIEENLNCLGHLSTIIHEANEEQGNSMMNLDWSWLTE
In the case of B6, the binding [3] is reported as “no binding”.

B7: Flag-IKKα, O15111 1-745 (enzyme)
chain: B6 chain
B7 was tested, and the binding (HA-ARD1 (human), P41227) was “no binding”.
